Results on 109 compounds are retold here after PubChem BioAssay AID488969 (Vanderbilt High Throughput Screening Facility, 2010).

Molecules are shown by their SMILES. Over roughly 110,000 compounds, “z-score” has its median near -0.1; the highest 2% begin near 2. Some of the results follow. Calls of active or inactive are those of the source.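 Rule for the calls: active = z-score in the third read window above 3 or below -3; inactive = the rest.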

The target of the experiment is Metabotropic glutamate receptor 8 (Rattus norvegicus) (UniProt P70579). Briefly: rat mGluR8 modulators via GIRK flux, primary screen, cell-based, thallium flux, HTS (AID 488969). To be noted: HEK293 rat mGluR8, GIRK (G protein-gated inwardly rectifying potassium channel) thallium flux, FluoZin2; at 10 µM; stronger effect = higher value; submaximal glutamate (EC20) added with thallium.
UniProt P70579, sequence (P70579 whole entry, looked up): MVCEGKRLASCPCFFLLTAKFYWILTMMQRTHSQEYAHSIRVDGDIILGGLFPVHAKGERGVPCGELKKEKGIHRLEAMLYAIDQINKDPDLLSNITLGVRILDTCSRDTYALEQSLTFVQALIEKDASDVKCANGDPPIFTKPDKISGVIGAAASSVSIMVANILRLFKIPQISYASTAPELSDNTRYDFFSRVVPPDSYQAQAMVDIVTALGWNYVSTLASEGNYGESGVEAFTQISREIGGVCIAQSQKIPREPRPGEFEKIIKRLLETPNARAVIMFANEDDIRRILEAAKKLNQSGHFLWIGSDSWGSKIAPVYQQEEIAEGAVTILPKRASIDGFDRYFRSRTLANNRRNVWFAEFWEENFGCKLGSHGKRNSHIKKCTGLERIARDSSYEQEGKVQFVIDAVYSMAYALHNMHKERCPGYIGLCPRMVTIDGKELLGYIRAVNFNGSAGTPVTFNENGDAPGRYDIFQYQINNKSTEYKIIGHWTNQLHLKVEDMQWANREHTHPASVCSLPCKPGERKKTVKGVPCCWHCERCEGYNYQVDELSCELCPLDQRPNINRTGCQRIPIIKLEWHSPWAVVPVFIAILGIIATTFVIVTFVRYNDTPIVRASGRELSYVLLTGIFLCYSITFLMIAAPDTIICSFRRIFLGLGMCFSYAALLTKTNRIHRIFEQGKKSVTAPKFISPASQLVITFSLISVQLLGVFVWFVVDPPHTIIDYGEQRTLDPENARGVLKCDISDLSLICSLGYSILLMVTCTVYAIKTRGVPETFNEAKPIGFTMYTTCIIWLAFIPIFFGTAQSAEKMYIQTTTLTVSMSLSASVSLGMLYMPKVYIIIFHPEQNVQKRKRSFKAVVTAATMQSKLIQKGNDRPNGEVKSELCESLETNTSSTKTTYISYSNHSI
In the case of `CC(=O)N/C(=C/c1ccccc1)C(=O)NCCO`, the z-score was -0.232.

In turn, `Cc1csc(NC(=O)c2sc3nc(-c4cccs4)ccc3c2N)n1` registered a z-score of 0.0434. With `Cc1ccc(S(=O)(=O)N2C(=O)CCC2C(=O)NCc2ccco2)cc1` (centres undefined) the figure was 0.396. With `O=C(Nc1ccccc1)C(Cc1cccs1)c1nn[nH]n1` (centres undefined) the figure was 0.0119; with `CCn1cc(Br)c(C(=O)Nc2cccc(Cl)c2)n1`, -0.412. For `CCSc1nnc(C)c2ccccc12` the value was -0.296; for `CCC(=O)Nc1cc(C(C)C)c(O)cc1C`, -0.0995; for `CCOC(=O)N1CCN(C(=O)Nc2ccccc2Cl)CC1`, 0.551. Take `NS(=O)(=O)c1ccc(CCNC(=O)CCC2COc3ccccc3O2)cc1` (centres undefined): the z-score was found to be 0.237. With `CC(C)Cc1csc(NC(=O)c2ccc(Cl)cc2)c1C(=O)O` the figure was 0.364; with `CCN(CC)CCNC(=O)CCCCCn1c(=O)[nH]c2cc(C(=O)OC)ccc2c1=O`, 0.0626; with `Nn1c(N2CCCCC2)nc2ccccc21`, -0.0787. For `C=CCNC(=O)c1cc(-c2ccc(Br)cc2)on1` the value was 1.05; for `O=C(CCSc1nc2ccccc2o1)N1CCOCC1`, -0.0875. With `CCC(C)[C@H](NC(=O)OC(C)(C)C)C(=O)N/N=C/C1=Cc2ccccc2OC1` (some centres undefined) the figure was -0.478. `O=C(CCc1nc(-c2ccc(Cl)cc2)no1)OCc1ccc(Br)cc1` gave a z-score of -0.0119.

In the case of `CN1CCN(NC(=O)c2ccc(Cl)c([N+](=O)[O-])c2)CC1`, the z-score was found to be 0.18. For `Cc1csc(CCc2nc(C)cs2)n1` the value was -0.221. For `O=C(CCCn1c(SCC(=O)c2ccc(F)cc2)nc2ccccc2c1=O)NCc1ccccc1` the value was -0.422; for `O=C(N/N=C/C=C/c1ccccc1[N+](=O)[O-])c1cccs1`, -0.256; for `C=CCNC(=S)Nc1sc2c(c1C(=O)OCC)CC(C(C)C)OC2` (centres undefined), active: 8.63. For `CC(=O)NS(=O)(=O)c1ccc(NC(=O)c2ccccc2F)cc1` the value was -0.204. As to `CCCCOc1ccc(CSCCNC(=S)Nc2ccccc2)cc1`, the z-score is -0.195. With `Cc1nn(-c2ccccc2)c(N2CCCC2)c1/C=N/O` the figure was -0.102; with `O=C(Nc1ccc(Br)cc1F)c1ccc2c(c1)N(Cc1ccccc1)C(=O)CS2=O` (centres undefined), 1.3; with `O=C(Nc1ccc2c(c1)OCCO2)c1ccc2nccnc2c1`, 0.215.

The compound `O=c1cc(N2CCN(Cc3ccccc3)CC2)[nH]c(=O)n1Cc1ccc(F)cc1` yielded a z-score of -0.132. With `CSc1nc2ccccc2cc1/C=C(\C#N)c1ccc(Cl)c(Cl)c1` the figure was -0.229; with `CC(C)(C)c1nc2ccccc2c2nnc(SCC(=O)Nc3nc4ccccc4s3)n12`, -0.287. With `N/C(=N\OC(=O)N1c2ccccc2Sc2ccccc21)c1ccccc1` the figure was -0.247. Regarding `Cc1c(NC(=O)c2ccc(=O)oc2)c(=O)n(-c2ccccc2)n1C`, the z-score is -0.416.

`CCc1ccc2nc(N3CCN(C)CC3)c(C#N)cc2c1` yielded a z-score of -0.507. For `CC(C)CC(=O)NC(NCC1CCCO1)C(Cl)(Cl)Cl` (centres undefined) the value was 0.0987. For `NS(=O)(=O)c1ccc(NC(=O)COC(=O)C23CC4CC(CC(C4)C2)C3)cc1` the value was 0.81; for `CCN(CC)CC#CCC(O)(c1ccccc1)C1CCCC1` (centres undefined), 0.508; for `CCN(CC)S(=O)(=O)c1cccc(C(=O)N/N=C/c2cccc(O)c2O)c1`, 0.294.

For the compound `Cc1cnc(NC(=O)c2cc3c(C)nn(Cc4ccccc4Cl)c3s2)s1`, the z-score is -0.311.

Consider `CCOC(=O)C1CCN(C(=O)Cc2ccc(C)cc2)CC1`, for which the z-score was -0.832. Take `CC(C)=CC(=O)N1CCCc2ccccc21`: the z-score was 0.23. For `O=C(CCN1C(=O)/C(=C\c2cccs2)SC1=S)Nc1nccs1` the value was -0.437; for `CC1CN(C(=O)c2ccccc2)C(=Nc2cccc(S(=O)(=O)N(C)C)c2)S1` (centres undefined), 0.0788.

`CCn1cc(C2=NCCO2)c2ccccc21` displayed a z-score of 2.2. With `Brc1ccccc1-c1nc(-c2ccccc2)no1` the figure was 0.0313; with `Cc1cccc(C)c1NCc1nnc(SCC(=O)Nc2nc(-c3ccccc3)cs2)n1-c1ccccc1`, -0.26. In the case of `O=[N+]([O-])c1cc(Cc2ccccc2)cc(C=Nc2ccc(N3CCOCC3)cc2)c1O`, the z-score is -1.16. With `Cc1noc(C)c1C(=O)Nc1ccc(Cl)cc1C(F)(F)F` the figure was -1.87; with `O=C(NCCNC(=O)c1cc(OCC(F)(F)F)ccc1OCC(F)(F)F)Nc1ccccc1`, -0.426. In turn, `O=C(CNC(=O)c1ccc(Br)o1)NCc1ccc2c(c1)OCO2` came in with a z-score of 0.352. For `Cn1cccc1CC(=O)N/N=C\c1cccs1` the value was -0.133; for `CCOC(=O)Cc1c(C)nc2cc(C)nn2c1C`, 0.652; for `OCC1N=C(c2ccccn2)OC1c1ccccc1` (centres undefined), 0.226. For `Cc1ccc(C)c(Oc2ncnc(N)c2[N+](=O)[O-])c1`, the z-score stood at 0.623.

For the compound `COc1ccc(N(CC(=O)Nc2cc(C)on2)S(=O)(=O)c2ccc(Cl)cc2)cc1`, the z-score is 0.0257. For `CN1C(=O)/C(=C2\SC(N3CCCCCC3)=NC2=O)c2ccccc21` the value was -0.473; for `CCc1cccc(CC)c1NC(=O)CSc1nnc(C(C)C)n1CC`, 0.342; for `CCCN1CNC(=S)N(c2ccccc2OC)C1`, 0.365. As for `Cc1nc(NC(C)C)c2cnn(CCc3ccccc3)c2n1`, the z-score is 0.135. With `C/C(=C\c1ccco1)C1C(C#N)=C(N)Oc2n[nH]c(-c3ccc(C)cc3)c21` (centres undefined), the z-score turned out to be 0.0675. In turn, `COc1ccc(C(=O)Nc2cc(Cl)ccc2OC(=O)c2ccc(OC)cc2)cc1` came in with a z-score of -0.218. For `O=C(CSc1nc2ccccc2[nH]1)Nc1cc(C(F)(F)F)ccc1N1CCOCC1` the value was -0.658.

In turn, `CC12CCCCC1N(O)C(=O)C(=O)N2O` (centres undefined) registered a z-score of -0.218.

With `COc1ccc(N2CCN(C(=O)CSc3nnc(COc4cccc5cccnc45)o3)CC2)cc1`, the z-score was -0.0235. For `CC(=O)Nc1ccc(-c2nnc(SCC(=O)Nc3ccc4c(c3)oc3ccccc34)n2C)cc1` the value was -0.05; for `O=C(NCCN1C(=O)C2C3C=CC(C3)C2C1=O)Nc1ccccc1O` (centres undefined), 0.461; for `O=C(CN(c1ccc(F)cc1)S(=O)(=O)c1ccccc1)NCCSC1CCCCC1`, 0.231.

As to `Cc1nn(C)c(C(=O)Nc2ccn(Cc3ccccc3F)n2)c1[N+](=O)[O-]`, the z-score is -0.18. With `Cc1cc2cc(C)c3nnc(SCC(=O)N4CCN(C(=O)c5ccco5)CC4)n3c2cc1C` the figure was -0.423; with `Cc1[nH]c2ccccc2c1SCC(=O)O`, -0.21. In turn, `COc1ccc(/C=C/C(=O)Nc2cccc(C(C)=O)c2)cc1` had a z-score of -0.7.

Turning to `CC(=O)/C(=N\Nc1ccc(Cl)cc1)Sc1nnc(-c2ccccc2)n1-c1ccccc1`, the z-score was 0.0778. For `Cc1c(NC(=O)OCCNC(=O)COc2ccc(Cl)cc2Cl)sc(=S)n1C` the value was -0.19; for `COc1ccc(N/C=C\C(=O)c2ccc(Br)cc2)cc1OC`, -0.129; for `O=C(/C=C/Nc1ccc(S(=O)(=O)Nc2ncccn2)cc1)c1ccc(Cl)c(Cl)c1`, 0.437. For `COc1ccc2[nH]c3c(NCCN(C(C)C)C(C)C)ncnc3c2c1` the value was 1.14; for `COc1ccc(S(=O)(=O)Nc2cc(C)cc(C)n2)c2ccccc12`, 0.0461; for `COc1ccc(-c2cc(C(N)=O)nc(N3CCCCCC3)n2)cc1`, -0.488. With `O=C(c1cnn2c(C(F)F)cc(C3CC3)nc12)N1CCCC1` the figure was -0.417. On to `COc1ccc(NC(=O)CN(c2cc(C)cc(C)c2)S(=O)(=O)c2c(C)noc2C)cc1`, for which the z-score is -0.52. On to `CC(C)N(C(=O)CN(C#N)c1nc(N(C)C)nc(N(C)C)n1)c1ccccc1`, for which the z-score was active: -4.1.

`OC1(c2ccc(OC(F)F)cc2)CSC(=Nc2cccnc2)N1C1CC1` (centres undefined) yielded a z-score of -0.02.

Regarding `c1ccc(Nc2nc(N3CCNCC3)nc(N3CCOCC3)n2)cc1`, the z-score turned out to be 1.01.

`Cc1cccc(C(c2c(C)nn(-c3ccccc3)c2N)c2c(C)nn(-c3ccccc3)c2N)c1` returned a z-score of 0.343. Compound `Cc1ccc(N(C(=O)c2sc(C)nc2C)C(C(=O)NCc2ccco2)c2ccccc2)cc1` (centres undefined) registered a z-score of -2.09. The compound `Cc1sc(NC(=O)/C=C/c2ccc(C(C)C)cc2)c(C#N)c1C` displayed a z-score of 0.146. For `CC(=O)NC(Cc1ccccc1)C(=O)NC1CCN(C(=O)c2cnccn2)CC1` (centres undefined) the value was -0.219.

For `O=C(Cn1c(-c2ccccc2)noc1=O)NCc1ccccc1`, the z-score was determined as 1.22. With `CC(NC(=O)Nc1cccc([N+](=O)[O-])c1)(C(F)(F)F)C(F)(F)F` the figure was 1.21; with `COc1ccc2nc(Nc3nc(CSc4nnnn4-c4ccccc4)cc(=O)[nH]3)nc(C)c2c1`, -0.0342; with `CCOc1ccc(-c2c(C)n([O-])c3c([n+]2=O)CCCC3)cc1`, -0.094. With `CC1CCc2cc(F)ccc2N1C(=O)CN1C(=O)c2ccccc2C1=O` (centres undefined) the figure was 0.499. With `CCC1CCc2c(sc(NC(=O)CSc3nc(-c4ccco4)cc(C(F)(F)F)n3)c2C#N)C1` (centres undefined) the figure was -0.169; with `CC(C(=O)Nc1cc(C(F)(F)F)ccc1N1CCOCC1)N1C(=O)C2CC=CCC2C1=O` (centres undefined), 0.0554; with `Cc1ccc(-c2nc(SCC(=O)Nc3cc(S(=O)(=O)N4CCCCC4)ccc3Cl)n[nH]2)cc1`, 0.396.

In turn, `COc1cc(-c2nnc(SCC(=O)c3cc(C)n(CC4CCCO4)c3C)o2)cc(OC)c1OC` (centres undefined) returned a z-score of -0.503. Take `CCOc1cc(C2NC(=O)NC(C)=C2C(=O)OCc2ccccc2)ccc1O` (centres undefined): the z-score was 0.913. As for `Cc1c(C(=O)Nc2ccc(OC(F)(F)F)cc2)sc2nc3n(c(=O)c12)CCC3`, the z-score was found to be 0.431.

The compound `Cc1ccc(/C=N/N=C2/NC(=O)C(CC(=O)Nc3ccc(Cl)cc3)S2)o1` (centres undefined) showed a z-score of 0.014. With `O=C(Oc1ccccc1/C=C\C(=O)c1cc2ccccc2o1)c1ccccc1`, the z-score is -0.109.

Regarding `COc1ccc(/C=N/Nc2nc(-c3ccc(Cl)cc3)cc(C(F)(F)F)n2)c(OC)c1`, the z-score is -0.127. For the compound `Cc1cc(SCC(=O)N/N=C/c2ccc(O)c(O)c2O)c(C)cc1Br`, the z-score was -0.402. For `COc1nn(-c2nc(-c3ccccc3)cc(C(F)(F)F)n2)cc1[N+](=O)[O-]` the value was -0.018. With `Cc1ccc(-c2nc(C#N)c(N3CCCCC3)o2)cc1` the figure was 0.553; with `Cc1ccc(OC(=S)Nc2ccc(F)cc2)cc1`, 0.0616; with `Cc1cc(C)c(S(=O)(=O)N2CCC(C(=O)NCc3ccco3)CC2)c(C)c1`, 0.126. For `CCOC(=O)Cn1c(=O)oc2cc(S(=O)(=O)N3CCn4c3nc3ccccc34)ccc21` the value was -0.511; for `O=C(CCCc1ccccc1)NCCCN1CCOCC1`, -0.391. In turn, `Cc1ccc(NC(=S)NNC(=O)c2cn(C)nc2C)cc1` had a z-score of 0.188. For `CO/N=C\Cc1oc(=O)c(NC(=O)c2ccccc2)cc1C(=O)OC` the value was 0.0797; for `O=C(Cc1c(F)cccc1Cl)Nc1ccon1`, 0.178.
